Reference: PubChem BioAssay AID588579 (National Center for Advancing Translational Sciences (NCATS), 2011)
The whole screen tested about 400,000 compounds, of which about 2,200 (0.55%) were called active. Inconclusive results, whose numbers are uncertain, are shown with a selection of clear calls. Calls follow the shape of the dose curve; as a rule, active = well fitted inhibition curve with a large enough effect; inconclusive = small, poorly fitted or top-dose-only effect, or another doubt; inactive = no such curve, though single readings can be large or run the other way. Where the call is inconclusive, the potency comes from a doubtful curve fit. A structure can be active in one record and inactive in another.

Biological target: DNA polymerase kappa (Homo sapiens) (UniProt Q9UBT6)
UniProt Q9UBT6, sequence (Q9UBT6 whole entry, looked up): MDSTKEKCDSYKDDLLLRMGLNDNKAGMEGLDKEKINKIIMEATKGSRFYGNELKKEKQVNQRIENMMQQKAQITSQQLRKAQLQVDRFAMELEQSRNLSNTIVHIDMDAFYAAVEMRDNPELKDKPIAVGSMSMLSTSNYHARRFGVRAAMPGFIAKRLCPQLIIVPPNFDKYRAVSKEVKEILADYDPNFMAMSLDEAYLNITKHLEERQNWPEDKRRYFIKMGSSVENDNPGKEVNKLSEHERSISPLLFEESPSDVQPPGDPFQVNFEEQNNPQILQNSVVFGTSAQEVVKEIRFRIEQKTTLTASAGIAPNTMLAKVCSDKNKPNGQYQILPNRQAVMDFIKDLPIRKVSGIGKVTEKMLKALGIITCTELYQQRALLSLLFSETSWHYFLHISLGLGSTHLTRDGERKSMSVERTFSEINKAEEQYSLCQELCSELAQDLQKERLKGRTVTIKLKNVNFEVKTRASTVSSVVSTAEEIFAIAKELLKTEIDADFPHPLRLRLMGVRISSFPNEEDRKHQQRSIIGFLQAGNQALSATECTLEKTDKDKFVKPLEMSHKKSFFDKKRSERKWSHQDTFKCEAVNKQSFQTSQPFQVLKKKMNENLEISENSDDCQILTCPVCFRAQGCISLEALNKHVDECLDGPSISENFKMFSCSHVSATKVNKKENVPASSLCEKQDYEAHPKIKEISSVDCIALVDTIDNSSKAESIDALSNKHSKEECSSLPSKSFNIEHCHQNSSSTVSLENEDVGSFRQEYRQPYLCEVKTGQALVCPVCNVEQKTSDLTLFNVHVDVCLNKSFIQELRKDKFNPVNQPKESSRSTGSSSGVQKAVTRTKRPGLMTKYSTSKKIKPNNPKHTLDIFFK
Assay: qHTS for Inhibitors of Polymerase Kappa
Details: purified Pol kappa, fluorescent DNA synthesis assay, 10 min; series mostly up to 107 µM; activity, negative = inhibition: at the top concentration
How it was run: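 10 nM Pol kappa preincubated 15 min at room temperature with compounds, then reaction started with substrate at 50 nM final. Fluorescence read kinetically at 0 and 10 min; buffer-only wells served as negative control.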
% is scaled to controls: 0 for no effect and ±100 for the full control effect; potency is read from the fitted curve at half-maximal effect; tags tell the direction and shape of the fitted curve.

| SMILES | activity, negative = inhibition | Potency |
| --- | --- | --- |
| Cc1cc(N2CCN(c3ccccc3F)CC2)nc2cc(O)ccc12 | inactive: -17.9% |  |
| O=C(NCCc1nc2ccccc2n1Cc1c(F)cccc1Cl)c1ccco1 | inactive: 0% |  |
| O=C(NC(Cc1ccccc1)C(=O)O)/C(=C\c1ccco1)NC(=O)c1ccc(Br)cc1 (configuration not stated) |  | active: 50.1 µM |
| COc1ccc(C(=O)Nc2nc(-c3ccc([N+](=O)[O-])cc3)c(-c3ccc(OC)cc3)s2)cc1 |  | inconclusive: 89.1 µM [inhibitor, single point] |
| Cc1cc(C=O)c(C)n1-c1cc(C(=O)O)cc(C(=O)O)c1 |  | active: 50.1 µM |
| O=C(CN1C(=O)N/C(=C\c2ccccc2OCc2ccc(C(=O)O)cc2)C1=O)Nc1ccc(F)cc1 |  | inconclusive: 89.1 µM [inhibitor, single point] |
| COc1ccc(C(=O)Nc2nnc(SCc3cc(=O)c4cccc(F)c4[nH]3)s2)cc1 | inactive: -10.9% [at 60.1 µM] |  |
| O=C1c2ccc3c4c(ccc(c24)C(=O)N1NC(=O)C(F)(F)F)CC3 |  | active: 17.8 µM |
| O=C(Cn1ncc2c3ccccc3n(Cc3cccc(Cl)c3)c2c1=O)NCCCc1ccccc1 |  | inconclusive: 100 µM [inhibitor, single point] |
| Cc1ccc2c(=O)c3ccccc3n(CCCN)c2c1C |  | active: 7.94 µM |
| Cc1cccc(C(=O)Nc2nnc(S(=O)(=O)N(C)Cc3ccc(Cl)cc3)s2)c1 | inactive: -1.35% |  |
| Cc1ccc(/C=C2\SC(=S)N(CC3CCCO3)C2=O)o1 (configuration not stated) |  | inconclusive: 89.1 µM [inhibitor, single point] |
| Cc1cc(C)c(NC(=O)CCN2C(=O)c3ccccc3Sc3ncccc32)c(C)c1 | inactive: 0.917% |  |
| Cc1ccc(S(=O)(=O)Nc2cc(=O)[nH]c(SCC(=O)Nc3ccccc3Cl)n2)cc1 | inactive: 5.29% |  |
| COc1cccc(NC(=O)NNC(=O)CCc2ccc(O)c(O)c2)c1 |  | active: 25.1 µM |
| Cc1cc2nccc(/C=C/c3ccc(N(C)C)cc3)c2cc1C | inactive: -16.2% |  |
| Clc1ccc(-c2nnc3sc(-c4ccc(Br)o4)nn23)cc1 | inactive: -16.4% |  |
| O=C(C1Cc2ccccc2CN1C(=O)c1ccccc1)N1CCN(c2ccccc2)CC1 (configuration not stated) |  | inconclusive: 79.4 µM [inhibitor, partial curve, poor fit] |
| COc1ccc(-c2cc(C#N)nc(Oc3ccc(Cl)cc3)n2)cc1 |  | inconclusive: 100 µM [inhibitor, single point] |
| COc1ccc(CCNC(=O)Cn2c(=O)n(-c3ccc(OC)c(OC)c3)c(=O)c3ccccc32)cc1OC |  | active: 79.4 µM |
| CN(Cc1ccccc1)Cc1c(O)ccc2c(=O)c(-c3ccccc3)c(C(F)(F)F)oc12 |  | inconclusive: 100 µM [inhibitor, partial curve, poor fit] |
| O=C(NN(C(=O)c1ccccc1)c1ccccc1)c1ccccc1 |  | inconclusive: 89.1 µM [inhibitor, partial curve, poor fit] |
| CC(/C=C/c1ccco1)=N\NC(=O)c1cc(Cl)ccc1O |  | active: 79.4 µM |
| Cc1cccc2c1NC(=O)C2=O |  | active: 50.1 µM |

| SMILES | activity, negative = inhibition | Potency |
| --- | --- | --- |
| CC(C)(C)[C@H]1COC(=O)[C@H](NC(=O)OCC2c3ccccc3-c3ccccc32)C/C=C\C[C@@H](CC(=O)N[C@@H](CO)Cc2ccccc2)C(=O)N1 | inactive: -2.07% |  |
| Cc1cc(C(=O)CN2c3cccc4cccc(c34)S2(=O)=O)c(C)n1C |  | inconclusive: 89.1 µM [inhibitor, partial curve, poor fit] |
| N#Cc1ccsc1NC(=O)COC(=O)C1=NNC(=O)CC1 |  | inconclusive: 79.4 µM [inhibitor, partial curve, poor fit] |
| CC1=CCC(C(=O)O)C(C(=O)NC2CCCCC2)C1 (configuration not stated) | inactive: -41.2% |  |
| CN(C)c1ccc(/C=C/c2ccncc2)cc1 |  | inactive |
| COC(=O)Cc1csc(N)n1 |  | inconclusive: 28.2 µM [inhibitor, partial curve, poor fit] |
| CCn1cc(C(=O)NCCc2ccc(OC)c(OC)c2)c(=O)c2cc(S(=O)(=O)N3CCOCC3)ccc21 |  | inconclusive: 1.26 µM [inhibitor, full curve, poor fit] |
| COc1cccc(CNC(=O)c2ccc3c(c2)nc2n3CCOC2)c1OC | inactive: -7.48% [at 60.1 µM] |  |
| CC(/C=N/n1c(-c2n[nH]c3c2CCC3)n[nH]c1=S)=C\c1ccco1 |  | inconclusive: 100 µM [inhibitor, single point] |
| COc1cc(/C=C/C(=O)O)cc(S(=O)(=O)NNC(=O)c2cc(C)oc2C)c1OC |  | inconclusive: 100 µM [inhibitor, single point] |
| CC(=O)Nc1ccc(SCCN2CC[C@@H](O)CCC2=O)cc1 |  | inconclusive: 31.6 µM [inhibitor, single point] |
| CCc1ccc2c(O)c3c(cc2c1C(=O)OC)C(=O)c1c(O)ccc(O)c1C3=O |  | active: 7.94 µM |
| CN1CC(O)C2=CC(=O)C(=O)C=C21 (configuration not stated) |  | active: 0.316 µM |
| CCOc1ccc(NC(=O)N2CCC(CN3CCC(C)CC3)CC2)cc1 |  | inconclusive: 89.1 µM [inhibitor, single point] |
| O=C(O)CN1C(=O)/C(=C\c2cc([N+](=O)[O-])ccc2OCc2ccccc2Cl)SC1=S |  | inconclusive: 89.1 µM [inhibitor, single point] |
| COc1ccc2c(c1)c(=O)oc1cc(OCC(=O)NC3CCCCC3)ccc12 |  | inconclusive: 89.1 µM [inhibitor, single point] |
| CCCCCCCCCCCCCCSCC(=O)O |  | inactive |
| O=C(Nc1cccc(C(F)(F)F)c1)c1ccc2nc(-c3ccco3)c(-c3ccco3)nc2c1 |  | active: 44.7 µM |
| CC(C)(C)NC(=O)Cn1cc(S(=O)(=O)Cc2ccccc2Cl)c2ccccc21 | inactive: 0.604% |  |
| O=C1CCCC/C1=C/Nc1ccc(C(=O)O)cc1 |  | inconclusive: 89.1 µM [inhibitor, single point] |
| CCOc1ccccc1N(CC(=O)Nc1ccccc1F)S(=O)(=O)c1ccccc1 |  | inconclusive: 89.1 µM [inhibitor, single point] |
| Cc1ccc2nc(N/N=C\c3ccc([N+](=O)[O-])o3)nc(-c3ccccc3)c2c1 | inactive: -17.6% |  |
| CC(C)(CO)Cc1cc(C(C)(C)C)c(O)c(C(C)(C)C)c1 |  | inconclusive: 23.8 µM [inhibitor, partial curve, poor fit] |
| COc1ccc(-c2c(C#N)c(SCC(=O)Nc3ccc(C)c(C)c3)nc(C)c2C(=O)Nc2ccccc2)cc1OC | inactive: -0.374% |  |

| SMILES | activity, negative = inhibition | Potency |
| --- | --- | --- |
| Nn1c(Cc2ccccc2)nc2ccccc2c1=O |  | inconclusive: 17.8 µM [inhibitor, partial curve, poor fit] |
| Cc1nnc(SCc2nc3sc(C(=O)O)c(C)c3c(=O)[nH]2)s1 |  | active: 89.1 µM |
| COc1ccc(N2Cc3cccc(C(=O)N4CCN(C(=O)c5ccco5)CC4)c3C2=O)cc1 |  | inconclusive: 28.2 µM [inhibitor, full curve, poor fit] |
| CCOC(=O)c1cc(CC)sc1NC(=O)CN1CCN(C(=O)c2ccco2)CC1 |  | inconclusive: 63.1 µM [inhibitor, partial curve, poor fit] |
| CCOC(=O)C1CCN(C(=O)CCc2nc3sc4c(c3c(=O)[nH]2)CCCC4)CC1 |  | inconclusive: 100 µM [inhibitor, single point] |
| O=C(O)c1cc(S(=O)(=O)N2CCCCC2)ccc1N1CCOCC1 | inactive: -12.8% |  |
| Cc1nn(-c2ccccc2)c2nc(-c3ccco3)cc(C(=O)O)c12 |  | active: 28.2 µM |
| Oc1ccccc1-c1nc2c3ccccc3c3ccccc3c2[nH]1 |  | inconclusive: 89.1 µM [inhibitor, single point] |
| CC(=O)c1cccc(N(CC(=O)N2CCCC2)S(C)(=O)=O)c1 | inactive: -10.7% |  |
| Cc1ccccc1NC(=O)COC(=O)c1c(-c2ccccc2)noc1C | inactive: -10.2% |  |
| C/C=C(\C)C(=O)O[C@H](c1cc2ccc(=O)oc2cc1OC)[C@@H](O)C(C)(C)O |  | inconclusive: 79.4 µM [inhibitor, single point] |
| COc1ccc(NC(=O)N/C=C/c2ccco2)cc1 |  | inconclusive: 89.1 µM [inhibitor, single point] |
| Cc1cc(C(=O)NNS(=O)(=O)c2cc(C(=O)O)ccc2Cl)c(C)n1-c1ccccc1 |  | inconclusive: 89.1 µM [inhibitor, single point] |
| O=C(Nc1ccc(Cl)cc1)N1CCCC1 |  | inconclusive: 89.1 µM [inhibitor, single point] |
| Nc1[nH]c(=S)[nH]c(=O)c1N | inactive: 2.35% |  |
| CCS(=O)(=O)N1Cc2ccccc2CC1C(=O)N1CCN(c2ccccc2)CC1 (configuration not stated) |  | inconclusive: 79.4 µM [inhibitor, single point] |
| COc1cc(/C=C2/SC(=S)N(Cc3ccccc3)C2=O)ccc1O |  | inconclusive: 12.6 µM [inhibitor, partial curve, poor fit] |
| COc1ccc(OC)c(CNC(=O)c2cc3c(=O)oc4ccc(C)cc4c3s2)c1 |  | inconclusive: 89.1 µM [inhibitor, partial curve, poor fit] |
| C=CCn1c(SCC(=O)c2ccc(O)c(O)c2)nnc1-c1ccc(C)cc1 |  | inconclusive: 50.1 µM [inhibitor, partial curve, poor fit] |
| Cc1cc(C)cc(OC(=O)c2cccnc2)c1 |  | inconclusive: 89.1 µM [inhibitor, partial curve, poor fit] |
| S=C(NCCCN1CCOCC1)NC1CCCC1 |  | inconclusive: 89.1 µM [inhibitor, partial curve, poor fit] |
| O=C(COC(=O)c1ccccc1)NCc1ccco1 |  | inconclusive: 89.1 µM [inhibitor, single point] |
| CC(=O)NC1C(=O)N=C(SCC(=O)NCc2ccccc2)NC1=O (configuration not stated) | inactive: -7.89% |  |
| O=C(Cn1ncc(Cl)c(Cl)c1=O)NC1CCS(=O)(=O)C1 (configuration not stated) |  | inconclusive: 89.1 µM [inhibitor, single point] |
